Experimental data taken from US20170306053A1 (Astellas, published 2017).
Read-outs that look alike come from different tables or passages of the source.

Legend:
[1] = molecular target: T1, human TLR4/MD2 (on cells) (human, UniProt O00206 24-839; Q9Y6Y9 19-160); experiment: cell-based or functional assay
[2] = molecular target: T1, human TLR4/MD2 (on cells); experiment: cell ELISA on human TLR4/MD2 expressing HEK 293 cells
Procedure: In order to evaluate the binding activity of the tandem form a (bispecific antibody format having the anti-human TLR2 antibody portion on the outer side and the anti-human TLR4 antibody portion on the inner side) prepared in Example 1 to the human TLR4, cell ELISA was performed. As reference antibodies, the tandem form c and the TLR4-IgG were used. Human TLR4/MD2 expressing HEK 293 cells were seeded at 1×10⁴ cells/well in a BD Bio Coat poly D-lysine 384 well plate (Becton Dickinson Co., Ltd.) using an α-MEM culture medium (Life Technologies Co., Ltd.) and incubated overnight. […] Twenty minutes later, 25 μL of 1 M sulfuric acid was added to stop the color reaction, and the color intensity thereof was measured with Safire II (Tecan Co., Ltd.) to evaluate the binding activity of the antibody. Using the obtained measurement results, 50% effective concentration (EC₅₀) of each antibody was calculated from 4 parameter logistic curve regression by statistical analysis software GraphPad Prism (GraphPad Software Co., Ltd.).

[3] = molecular target: T2, human TLR2 protein (R&D systems Co., 2616 TR/CF) (human, UniProt O60603 fragment); experiment: SPR (Biacore T200), human TLR2 captured on anti-His IgG, antibody as analyte, bivalent analyte model
T2 construct: Bought protein captured on an anti-His IgG chip; not shown: His tag implied by capture on anti-His IgG
T2 sequence (O60603 21-590): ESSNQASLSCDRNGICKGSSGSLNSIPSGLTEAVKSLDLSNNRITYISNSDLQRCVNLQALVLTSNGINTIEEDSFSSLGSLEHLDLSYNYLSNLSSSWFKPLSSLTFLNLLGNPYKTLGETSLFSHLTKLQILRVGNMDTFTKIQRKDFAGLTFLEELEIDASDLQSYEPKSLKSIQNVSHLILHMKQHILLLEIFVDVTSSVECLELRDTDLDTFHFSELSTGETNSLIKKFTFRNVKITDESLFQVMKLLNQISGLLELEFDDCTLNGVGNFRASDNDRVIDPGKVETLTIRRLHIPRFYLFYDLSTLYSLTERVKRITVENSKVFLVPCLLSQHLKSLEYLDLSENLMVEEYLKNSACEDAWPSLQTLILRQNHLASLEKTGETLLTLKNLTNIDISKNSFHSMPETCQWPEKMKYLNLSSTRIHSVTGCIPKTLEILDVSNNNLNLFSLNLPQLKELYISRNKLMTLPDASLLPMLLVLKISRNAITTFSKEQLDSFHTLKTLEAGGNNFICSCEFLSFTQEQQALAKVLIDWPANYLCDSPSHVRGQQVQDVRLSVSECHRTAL
Procedure: In order to evaluate the binding activity of the tandem form a prepared in Example 1 to the human TLR2, SPR analysis was performed. The tandem form c and the TLR2-IgG were used as the reference antibody. For SPR analysis, Biacore T200 (GE Healthcare Japan Corporation) was used. Anti-His IgG (attached to His Capture Kit) was immobilized on CMS sensor chip using His Capture Kit (GE Healthcare Japan Corporation, 28-9950-56) and Amine Coupling Kit (GE Healthcare Japan Corporation, BR-1000-50). […] Thereafter, a solution (eight step, two fold serial dilution in the concentration range of final concentration from 100 nM to 0.781 nM) obtained by serially diluting each purified antibody (tandem form a, tandem form c, or TLR 2-IgG) with HBS-EP+buffer was added at a flow rate of 50 μL/min for 2 minutes, and the binding between the purified antibody and TLR 2 was measured. Next, HBS-EP+buffer was added at a flow rate of 50 μL/min for 5 minutes, and dissociation of the purified antibody and the human TLR2 was measured. Bivalent analyte model, Rmax was analyzed by Fit local, a binding rate constant (kₐ) and a dissociation rate constant (kd) were calculated, and kd was divided by kₐ to calculate the binding dissociation constant (KD).

[4] = molecular target: T1, human TLR4/MD2 (on cells); experiment: cell-based or functional assay; remark: listed apart in the source

T1 sequence (O00206 24-839, chain 1 of 2): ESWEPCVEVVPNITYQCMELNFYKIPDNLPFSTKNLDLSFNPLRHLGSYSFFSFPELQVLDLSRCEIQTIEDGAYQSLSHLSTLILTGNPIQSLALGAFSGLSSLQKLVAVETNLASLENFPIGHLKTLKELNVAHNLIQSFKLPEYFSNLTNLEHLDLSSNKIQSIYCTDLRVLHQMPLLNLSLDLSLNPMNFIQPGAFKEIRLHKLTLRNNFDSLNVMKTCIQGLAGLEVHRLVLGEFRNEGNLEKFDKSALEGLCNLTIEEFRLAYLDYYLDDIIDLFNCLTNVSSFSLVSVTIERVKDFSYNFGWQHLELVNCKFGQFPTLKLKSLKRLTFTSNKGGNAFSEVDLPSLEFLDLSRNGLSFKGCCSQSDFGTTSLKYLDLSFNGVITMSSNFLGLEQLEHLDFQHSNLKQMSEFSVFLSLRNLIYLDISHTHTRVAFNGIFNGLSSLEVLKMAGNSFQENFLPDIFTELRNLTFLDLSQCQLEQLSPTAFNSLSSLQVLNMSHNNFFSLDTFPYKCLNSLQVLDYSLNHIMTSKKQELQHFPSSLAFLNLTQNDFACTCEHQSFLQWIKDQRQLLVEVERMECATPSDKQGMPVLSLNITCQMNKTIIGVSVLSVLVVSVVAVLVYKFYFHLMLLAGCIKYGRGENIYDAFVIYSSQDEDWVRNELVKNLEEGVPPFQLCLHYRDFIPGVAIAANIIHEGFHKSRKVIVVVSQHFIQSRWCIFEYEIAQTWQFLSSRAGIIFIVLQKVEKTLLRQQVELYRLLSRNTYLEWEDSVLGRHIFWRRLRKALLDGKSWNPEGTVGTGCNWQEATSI
T1 sequence (Q9Y6Y9 19-160, chain 2 of 2, further chain): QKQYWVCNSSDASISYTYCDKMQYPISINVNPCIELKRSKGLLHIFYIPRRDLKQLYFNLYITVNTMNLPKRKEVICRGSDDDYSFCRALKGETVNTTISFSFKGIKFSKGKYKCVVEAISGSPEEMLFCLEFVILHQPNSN

B1: Tandem form d (bispecific antibody, human IgG1, kappa)
heavy: EVQLVESGGGLVQPGGSLRLSCAASGFTFDTYAMHWVRQAPGKGLEWVAGISWNSGNIGYADSVKGRFTISRDNSKNTLYLQMNSLRAEDTAVYYCAKDWDNWNLFDYWGQGTLVTVSSASTKGPSVFPLAPSSKSTSGGTAALGCLVKDYFPEPVTVSWNSGALTSGVHTFPAVLQSSGLYSLSSVVTVPSSSLGTQTYICNVNHKPSNTKVDKKVEPKSCDGGGGSGGGGSGGGGSQVQLQESGPGLVKPSETLSLTCTVSGGSISSFYWTWIRQPPGKGLEWIGYIHYSGSTNYNPSLKSRVTISVDTSKNQFSLTLSSVTAADTAVYYCARRRSMNWFDPWGQGTLVIVSS[letters of human IgG1 constant region omitted]
light: DIQMTQSPSSLSASVGDRVTITCRASQSISSWLAWYQQKPGKAPKLLIYKASSLESGVPSRFSGSGSGTDFTLTISSLQPEDFATYYCQQYSSYSWTFGQGTKVEIKRTVAAPSVFIFPPSDEQLKSGTASVVCLLNNFYPREAKVQWKVDNALQSGNSQESVTEQDSKDSTYSLSSTLTLSKADYEKHKVYACEVTHQGLSSPVTKSFNRGECGGGGSGGGGSGGGGSAIQMTQSPSSLSASVGDRVTITCRASQVIRNDLGWYQQKPGKAPKFLIYAASSLQSGVPSRFSGSGSGTDFTLTISSLQPEDFATYYCLQDYNYPLTFGGGTKVEIKRTVAAPSVFIFPPSDEQLKSGTASVVCLLNNFYPREAKVQWKVDNALQSGNSQESVTEQDSKDSTYSLSSTLTLSKADYEKHKVYACEVTHQGLSSPVTKSFNRGEC
- IC50 (M), Neutralization Activity to Human TLR4 (LPS-induced IL-6 production inhibition, U937 cells) [1]: 4.9e-12 M

B2: Tandem form c (bispecific antibody, human IgG1, kappa)
heavy: QVQLQESGPGLVKPSETLSLTCTVSGGSISSFYWTWIRQPPGKGLEWIGYIHYSGSTNYNPSLKSRVTISVDTSKNQFSLTLSSVTAADTAVYYCARRRSMNWFDPWGQGTLVIVSSASTKGPSVFPLAPSSKSTSGGTAALGCLVKDYFPEPVTVSWNSGALTSGVHTFPAVLQSSGLYSLSSVVTVPSSSLGTQTYICNVNHKPSNTKVDKKVEPKSCDGGGGSGGGGSGGGGSEVQLVESGGGLVQPGGSLRLSCAASGFTFDTYAMHWVRQAPGKGLEWVAGISWNSGNIGYADSVKGRFTISRDNSKNTLYLQMNSLRAEDTAVYYCAKDWDNWNLFDYWGQGTLVTVSS[letters of human IgG1 constant region omitted]
light: AIQMTQSPSSLSASVGDRVTITCRASQVIRNDLGWYQQKPGKAPKFLIYAASSLQSGVPSRFSGSGSGTDFTLTISSLQPEDFATYYCLQDYNYPLTFGGGTKVEIKRTVAAPSVFIFPPSDEQLKSGTASVVCLLNNFYPREAKVQWKVDNALQSGNSQESVTEQDSKDSTYSLSSTLTLSKADYEKHKVYACEVTHQGLSSPVTKSFNRGECGGGGSGGGGSGGGGSDIQMTQSPSSLSASVGDRVTITCRASQSISSWLAWYQQKPGKAPKLLIYKASSLESGVPSRFSGSGSGTDFTLTISSLQPEDFATYYCQQYSSYSWTFGQGTKVEIKRTVAAPSVFIFPPSDEQLKSGTASVVCLLNNFYPREAKVQWKVDNALQSGNSQESVTEQDSKDSTYSLSSTLTLSKADYEKHKVYACEVTHQGLSSPVTKSFNRGEC
notes: Same as tandem form a but the two light chains stay linked through ((Gly)4Ser)3, no protease site (uncleaved light chain polypeptide)
- EC50 [2]: 38.5 nM
- Kd [3]: 2.56 nM
- IC50 (M), Neutralization Activity to Human TLR4 (LPS-induced IL-6 production inhibition, U937 cells) [4]: 3.52e-11 M
